Measurements reported in PubChem BioAssay AID686978 (National Center for Advancing Translational Sciences (NCATS), 2013).
“And” between values parts separate entries of the source, which are not always exact repeats. Identical values can stand only once. The whole screen tested about 420,000 compounds, of which about 64,000 (15%) were called active. This list was built around the results that the source calls inconclusive (neither active nor inactive); the mix of calls is not that of the screen. Calls come from the whole dose curve; as a rule, active = well fitted inhibition curve with a large enough effect; inconclusive = small, poorly fitted or top-dose-only effect; inactive = flat fitted curve, though single readings scatter. Potencies of inconclusive entries are doubtful fits and often do not repeat.
% is set by controls: 0 for no effect and ±100 for the full control effect; potency is the fitted concentration of half-maximal effect; tags give direction and shape of the fitted curve.

Test: qHTS for Inhibitors of human tyrosyl-DNA phosphodiesterase 1 (TDP1): qHTS in cells in absence of CPT; note: nearly all actives have a fitted effect of over 55% in size
Conditions: DT40 Tdp1-/- hTDP1 cells, no CPT, ATP luminescence, 48 h; activity change, negative = growth inhibition: at 46.2 µM (top of the series) unless noted
Method in brief: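 Growth of hTDP1-complemented DT40 Tdp1-knockout cells is measured by ATP luminescence after at least 48 hr compound exposure at 37 °C, with DMSO substituting for the 20 nM CPT used in the parallel screen.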
In the case of `COc1ccccc1NS(=O)(=O)c1cc(N)ccc1N1CCOCC1`, the Potency is reported as inconclusive: 16.4 µM [inhibitor, single point]. In the case of `Cc1cc(C)cc(N2CN=c3s/c(=C\c4ccco4)c(=O)n3C2)c1`, the Potency is reported as “inactive”. With `CC(C)C(=O)Nc1cccc(NC(=S)NC(=O)c2ccccc2Cl)c1` the Potency was active: 18.4 µM. With `COC(=O)CNS(=O)(=O)c1ccc(Cc2ccc(S(=O)(=O)NCC(=O)OC)cc2)cc1` the Potency was inconclusive: 12.6 µM [inhibitor, single point]. In the case of `COC(=O)C(Cc1ccccc1)NC(=S)NC(=O)c1ccccc1` (stereo not drawn), the Potency is reported as active: 18.4 µM. In the case of `CCn1cc(CNC(=O)c2cc(COc3ccc(F)cc3F)on2)cn1`, the Potency is reported as active: 23.1 µM. With `Cc1ccc(NC(=S)NCc2ccccc2Cl)c(C)c1` the Potency was active: 20.6 µM. With `CCNc1nc(C23CC4CC(CC(C4)C2)C3)cs1` the Potency was inconclusive: 20.6 µM [inhibitor, single point]. With `CC[n+]1cc(-c2ccccc2)nc(N2CCOCC2)n1` the Potency was inconclusive: 23.1 µM [inhibitor, single point]. In the case of `CCN1C(=O)C(CC(=O)Nc2ccc(F)cc2)N(CCCN2CCN(c3ccc(F)cc3)CC2)C1=S` (stereo not drawn), the Potency is reported as active: 14.6 µM. In the case of `COc1ccc(N2CCN(C(=O)c3ccc4c(c3)CCN4S(C)(=O)=O)CC2)cc1`, the Potency is reported as inconclusive: 29.1 µM [inhibitor, single point] and inconclusive: 18.4 µM [inhibitor, single point]. In the case of `COC(=O)c1cc(OC)c(OC)cc1NC(=O)c1ccc(C)cc1`, the Potency is reported as inconclusive: 16.4 µM [inhibitor, partial curve]. With `CCn1c(C)nc2cc(S(N)(=O)=O)ccc21` the Potency was active: 23.1 µM. For `COc1ccc(-c2csc(N(CCCN(C)C)C(=O)c3ccccc3F)n2)cc1`, the Potency was active: 14.6 µM. With `O=C(Cc1nc2ccccc2[nH]1)c1ccc(Cl)cc1` the Potency was inconclusive: 18.4 µM [inhibitor, single point]. In the case of `COc1ccc(N2CCN(c3cc(C)c4ccc(O)cc4n3)CC2)cc1`, the Potency is reported as inconclusive: 29.1 µM [inhibitor, single point]. With `CN1CCN(CCOc2ccc(-c3ccccc3)cc2)CC1` the Potency was inconclusive: 20.6 µM [inhibitor, single point]. In the case of `COc1ccccc1-n1cnnc1SCC(=O)Nc1cc(C)on1`, the Potency is reported as inconclusive: 18.4 µM [inhibitor, partial curve]. In the case of `COc1ccc(-c2nc(CN3CCC(C(=O)N4CCc5ccccc54)CC3)c(C)o2)cc1OC`, the Potency is reported as inconclusive: 29.1 µM [inhibitor, single point]. With `COc1cccc(CNc2nc(SC)ncc2CO)c1` the Potency was inconclusive: 9.2 µM [inhibitor, partial curve]. With `CC1(C(=O)NS(=O)(=O)c2ccccc2)CCN1C(=O)C1CCCCC1` (stereo not drawn) the Potency was “inactive”. In the case of `O=c1c2ccccc2nc(-c2ccco2)n1CCCn1ccnc1`, the Potency is reported as “inactive”. In the case of `COc1ccc(CCCC(=O)Nc2ccc(F)cc2)cc1`, the Potency is reported as “inactive”. With `N#Cc1cc(-c2ccccc2)nn1-c1ccccc1` the Potency was active: 20.6 µM. For `Cc1ccc2c(c1)N(C(=O)N1CCC(C(=O)NCc3ccco3)CC1)CC(C)O2` (stereo not drawn), the Potency was inconclusive: 23.1 µM [inhibitor, single point]. In the case of `Cc1ccc(S(=O)(=O)NCCCN2CCCC2)cc1`, the Potency is reported as “inactive”. For `O=C(/N=C1\NC(=O)C(F)(C(F)(F)F)S1)NC1CCCCC1` (stereo not drawn), the Potency was inconclusive: 23.1 µM [inhibitor, single point]. In the case of `CC(OC(=O)c1cccc(S(=O)(=O)N2CCOCC2)c1)C(=O)NCC1CCCCC1` (stereo not drawn), the Potency is reported as “inactive”. For `COc1ccc2sc(-c3ccc(S(C)(=O)=O)cc3)c(C#CCO)c2c1`, the Potency was active: 20.6 µM. In the case of `CCOc1ccc(C(C(=O)NC2CCCCC2)N(C(=O)Cc2cccs2)c2ccc(-n3cnnn3)c(OC)c2)cc1` (stereo not drawn), the Potency is reported as active: 23.1 µM. In the case of `COc1ccc(NC(=O)c2cccc(S(=O)(=O)N(C)c3ccccc3)c2)cn1`, the Potency is reported as active: 16.4 µM. For `COc1ccc(OC)c(NC(=O)COC(=O)c2c3c(nc4ccccc24)CCCC3)c1`, the Potency was active: 20.6 µM. With `CCOC(=O)c1ccc(NC(=O)Oc2cc(C)c(Cl)cc2C(C)C)cc1` the Potency was inconclusive: 5.17 µM [inhibitor, full curve]. With `COc1ccc([C@H]2/C=C\CN(C(=O)c3ccccc3)[C@@H](C)C(=O)N2Cc2ccc(F)cc2)cc1` the Potency was active: 23.1 µM. With `CC(C)c1ccc(/C=N\NC(=O)c2ccc(Cn3cccn3)o2)cc1` the Potency was inconclusive: 7.31 µM [inhibitor, partial curve]. With `COC(=O)C1=C(C(=O)c2ccc(C)cc2)C(c2ccccc2)n2nnnc2N1` (stereo not drawn) the Potency was “inactive”. In the case of `Cc1cccc(C(=O)Nc2nc(-c3ccc(Br)cc3)ns2)c1`, the Potency is reported as inconclusive: 29.1 µM [inhibitor, single point]. With `Oc1ccccc1/C=C/c1noc(-c2ccccc2O)n1` the Potency was inconclusive: 11.6 µM [inhibitor, partial curve, poor fit]. In the case of `CCOC(=O)c1cn2ccc(C)cc2n1`, the Potency is reported as inconclusive: 29.1 µM [inhibitor, single point]. In the case of `COc1cc(C(=O)N2CCc3c([nH]c4ccccc34)C2c2ccccc2)cc(OC)c1OC` (stereo not drawn), the Potency is reported as active: 6.51 µM. For `COc1ccc(/C=C2\SC(=O)N(CCNC(=O)C3CC4C=CC3C4)C2=O)cc1` (stereo not drawn), the Potency was inconclusive: 16.4 µM [inhibitor, partial curve]. In the case of `Clc1cccc(CNc2ccn3nc(-c4ccco4)cc3n2)c1`, the Potency is reported as “inactive”. In the case of `CN=C(NC#N)NCCSCc1csc(N=C(N)N)n1`, the Potency is reported as “inactive”. With `COc1ccccc1/C=C1/C(=O)N(c2ccccc2)N=C1C` the Potency was “inactive”. In the case of `COc1cccc(C(=O)NNC(=O)Cc2ccc([N+](=O)[O-])cc2)c1`, the Potency is reported as “inactive”. With `COc1ccc(NC(=O)C2(C)Cc3c(-c4ccc5c(c4)OCO5)ccnc3O2)cc1OC` (stereo not drawn) the Potency was inconclusive: 29.1 µM [inhibitor, single point]. With `Cc1cc2c(N=NC(=O)CCc3ccccc3)c(O)[nH]c2cc1Br` the Potency was inconclusive: 20.6 µM [inhibitor, single point]. With `CCOC(=O)C1CCN(C(=O)Cn2ncc3c([nH]c4ccc(C)cc43)c2=O)CC1` the Potency was “inactive”. In the case of `Cc1cccc(N/C=C/C(=O)c2cccs2)c1C`, the Potency is reported as “inactive”. In the case of `CCc1ccc(NC(=O)CSc2nc3ccccc3c(=O)n2CCCN2CCC(C)CC2)cc1`, the Potency is reported as active: 23.1 µM. In the case of `Cc1ccccc1C(=O)NC(=S)NCCc1ccccc1`, the Potency is reported as inconclusive: 29.1 µM [inhibitor, single point]. With `CCCCC(=O)NNC(=O)c1c(O)c2ccccc2[nH]c1=O` the Potency was inconclusive: 13 µM [inhibitor, partial curve]. In the case of `CC(=O)Oc1ccc2c3c(c(=O)oc2c1)CCCC3`, the Potency is reported as inconclusive: 6.51 µM [inhibitor, partial curve]. For `CCCn1c(C)cc(-c2csc(NC(=O)CCc3nc4ccccc4c(=O)[nH]3)n2)c1C`, the Potency was inconclusive: 20.6 µM [inhibitor, single point]. For `CC(=O)N1CCC2(CC1)OC(=O)C(C)=C2C(=O)Nc1ccccc1C(F)(F)F`, the Potency was “inactive”. With `CCOc1ccc(-c2nc3scc(-c4cccs4)c3c(=O)[nH]2)cc1` the Potency was inconclusive: 23.1 µM [inhibitor, single point]. In the case of `CCCC(=O)O[C@]1(C(=O)COC(=O)CC)CC[C@H]2[C@@H]3CCC4=CC(=O)CC[C@]4(C)[C@H]3[C@@H](O)C[C@@]21C`, the Potency is reported as “inactive”. With `O=c1nc(-c2ccccc2)nc(-c2ccccc2)[nH]1` the activity change, negative = growth inhibition was inconclusive: -31.9% [inhibitor]. In the case of `CC(=O)NS(=O)(=O)c1ccc(NC(=O)c2ccc(S(=O)(=O)N3CCCC3)cc2)cc1`, the Potency is reported as “inactive”. In the case of `CC(=O)N1CCc2ccc(S(=O)(=O)Nc3ccccc3Cl)cc21`, the Potency is reported as inconclusive: 16.4 µM [inhibitor, partial curve, poor fit]. For `CSc1ncc(C(=O)N2CCN(c3ccc(F)cc3)CC2)c(C)n1`, the Potency was “inactive”. In the case of `Cn1c(C(=O)NC2CCCCC2)cc2c(=O)n3ccccc3nc21`, the Potency is reported as inconclusive: 2.06 µM [inhibitor, partial curve]. For `CCCC(=O)OC[C@@H](OC(=O)CCC)[C@@H](OC(=O)CCC)[C@H](Cn1c2nc(=O)[nH]c(=O)c-2nc2cc(C)c(C)cc21)OC(=O)CCC`, the Potency was active: 5.96 µM. In the case of `Cc1cc2oc(C(=O)N(Cc3ccccc3)C3CCS(=O)(=O)C3)cc(=O)c2cc1Cl` (stereo not drawn), the Potency is reported as inconclusive: 29.1 µM [inhibitor, single point]. For `COc1cc(OC)cc(C(=O)N[C@H](C(=O)OCC(=O)c2c[nH]c3ccccc23)C(C)C)c1`, the Potency was inconclusive: 29.1 µM [inhibitor, single point]. For `CN(C)CCN1C(=O)c2ccccc2N(C)c2ccccc21`, the Potency was inconclusive: 26.6 µM [inhibitor, single point]. With `COc1ccc(CC(=O)Nc2c(C(N)=O)oc3ccccc23)cc1` the Potency was “inactive”. In the case of `O=C(NCc1ccc(N2CCCC2=O)cc1)Nc1cccc(Cl)c1`, the activity change, negative = growth inhibition is reported as inconclusive: -34.9% [inhibitor]. With `Cc1cc(C)c2c(CN3CCN(C/C=C/c4ccccc4)CC3)cc(=O)oc2c1` the Potency was inconclusive: 29.1 µM [inhibitor, single point]. In the case of `Cc1cc(C)n2nc(C(=O)OCC(=O)c3ccccc3)nc2n1`, the Potency is reported as inconclusive: 6.51 µM [inhibitor, single point]. For `O=C(Nc1ccc2c(c1)OCO2)c1cc(C2CCCCN2C(=O)c2ccc3ccccc3c2)on1` (stereo not drawn), the Potency was active: 14.6 µM. In the case of `CCOC(=O)C1CCC(CN(Cc2c(Cl)cccc2Cl)S(=O)(=O)c2ccc(F)cc2)CC1` (stereo not drawn), the Potency is reported as inconclusive: 16.4 µM [inhibitor, single point]. With `CCCN1CCN(c2ncnc3scc(C4COc5ccccc5O4)c23)CC1` (stereo not drawn) the Potency was inconclusive: 18.4 µM [inhibitor, single point].
